Measurements published in US20230072897A1, “ANTI-B7-H4 ANTIBODY-DRUG CONJUGATE AND MEDICINAL USE THEREOF” (SHANGHAI HANSOH BIOMEDICAL CO., LTD., priority 2019, published 2023).

T1: human huB7-H4-His protein (Homo sapiens, UniProt Q7Z7D3)
T1 construct: made in house; host or cells: 293T cells (pTT5 vector)
T1 sequence (Q7Z7D3 with tags, fused parts or gaps): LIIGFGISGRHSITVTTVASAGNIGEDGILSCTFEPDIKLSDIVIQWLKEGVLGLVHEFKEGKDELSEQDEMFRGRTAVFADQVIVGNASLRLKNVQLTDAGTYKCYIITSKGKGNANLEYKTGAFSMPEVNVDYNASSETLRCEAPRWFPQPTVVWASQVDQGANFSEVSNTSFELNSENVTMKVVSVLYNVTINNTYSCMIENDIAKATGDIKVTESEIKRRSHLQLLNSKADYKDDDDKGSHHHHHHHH

T2: B7-H4 protein on MX-1 cells (Homo sapiens, UniProt Q7Z7D3)
T2 construct: The cultured MX-1 cells expressing human B7-H4 (CLS Cell Lines Service GmbH #300296) were collected; host or cells: MX-1 cells
T2 sequence (Q7Z7D3 25-282): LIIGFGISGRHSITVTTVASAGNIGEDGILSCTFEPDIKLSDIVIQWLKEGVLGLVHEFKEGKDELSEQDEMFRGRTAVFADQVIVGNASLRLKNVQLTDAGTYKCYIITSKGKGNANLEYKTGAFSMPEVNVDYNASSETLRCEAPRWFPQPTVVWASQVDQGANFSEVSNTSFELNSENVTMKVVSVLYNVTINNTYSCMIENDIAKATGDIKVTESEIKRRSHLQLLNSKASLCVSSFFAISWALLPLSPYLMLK


Columns and labels:
[1] = tested on: MX-1 cells expressing human B7-H4; test: In vitro cell binding experiment (FACS) with MX-1 cells; settings: flow cytometry
Method: The cultured MX-1 cells expressing human B7-H4 (CLS Cell Lines Service GmbH #300296) were collected, the cell density was adjusted with PBS at pH 7.4, and the cells were plated on a 96-well plate with V-shaped bottom at 1×10^5 cells per well. The plate was centrifuged at 2000 rpm for 5 minutes and the supernatant was removed. 100 μl of the gradient diluted humanized antibody solution (diluted with PBS containing 0.5% BSA, starting from 1 μM, a 3-fold gradient of 10 doses) was added to each well, mixed well and incubated at 4° C. on a shaker for 1 hour. The plate was centrifuged at 2000 rpm for 5 minutes and the supernatant was removed. The cells were washed twice with PBS. 100 μl of FITC-labeled goat anti-human secondary antibody (Abeam, cat #ab97224) diluted with 0.5% BSA in PBS was added to each well, mixed well and incubated for 30 minutes at 4° C. on a shaker. The plate was centrifuged at 2000 rpm for 5 minutes and the supernatant was removed. The cells were washed twice with PBS and then resuspended in PBS. The signal was detected by using a flow cytometer (BECKMAN COULTER, model DxFLEX), and a concentration curve was plotted for result analysis.

[2] = target: T1, human huB7-H4-His protein; test: Affinity kinetics experiment (Biacore T200); format: binding; settings: for Affinity to the human B7-H4 antigen protein (in words): Biacore; for Dissociation rate kd: antibody on CM5 chip, 50 nM huB7-H4-His, 1:1 (Langmuir) model
Method: The Biacore method is a generally acknowledged method for objectively detecting the affinity and kinetics between proteins. The affinity and binding kinetics of the antibodies to be tested of the present invention were analyzed by Biacore T200 (GE). The anti-B7-H4 antibodies to be tested of the present invention were covalently linked to CM5 (GE) chips by using the kit provided by Biacore and the NHS standard amino coupling method. Then 50 nM of human huB7-H4-His protein diluted in the same buffer was injected at a flow rate of 10 uL/min. After the injection, the samples were all regenerated with the regeneration reagent in the kit. The antigen-antibody binding kinetics was tracked for 3 minutes and the dissociation kinetics was tracked for 10 minutes. The obtained data were analyzed with a 1:1 (Langmuir) binding model by using BIAevaluation software of GE.

[3] = target: T2, B7-H4 protein on MX-1 cells; test: Endocytosis of anti-B7-H4 antibodies in MX-1 cells; format: cell-based; settings: antibody 20 μg/ml; for Humanized antibody-mediated endocytosis efficiency of B7-H4 protein, 0.5 hour (%) / Humanized antibody-mediated endocytosis efficiency of B7-H4 protein, 2 hours (%): 37° C.
Method: In order to test whether the antibodies of the present invention could be endocytosed along with human B7-H4 after binding to B7-H4, MX-1 cells were used for evaluation. MX-1 cells were trypsinized (first washed with PBS once at 37° C. for about 2 min), collected and resuspended in pre-chilled FACS buffer. The cell concentration was adjusted to 1×10^6 cells/mL. 1 mL of the cell suspension was added to an EP tube, centrifuged at 1500 rpm for 5 minutes, and the supernatant was removed. 1 mL of the prepared antibody to be tested was added to resuspend the cells, and the final concentration of the antibody was 20 μg/ml. The cells were incubated on a 4° C. shaker for 1 hour, centrifuged, and the supernatant was discarded (4° C., 1500 rpmx5 min). The cells were washed twice with FACS buffer and the supernatant was removed. 100 μL of fluorescent secondary antibody working solution was added to each tube to resuspend the cells. The cells were incubated on a 4° C. shaker for 30 min, centrifuged, and the supernatant was discarded (4° C., 1500 rpmx5 min). The cells were washed twice with FACS buffer and the supernatant was removed. 1.0 mL of pre-warmed MX-1 cell complete medium was added to each tube to resuspend the cells and mixed. The cell suspension was aliquoted into 4 tubes at 200 μL per tube, which were respectively the 0 min group, blank group, 30 min group and 2 h group. The 0 min and blank groups were placed on ice, while the other groups were placed in a 37° C. incubator for endocytosis for 30 min and 2 h respectively. At the corresponding time point, the EP tube was taken out and placed on ice to pre-chill for 5 min. All treatment groups were centrifuged and the supernatant was discarded (4° C., 1500 rpmx5 min). The cells were washed once with FACS buffer and the supernatant was removed. 250 μL strip buffer was added to EP tubes of all treatment groups except the 0 min group and incubated for 8 min at room temperature. The cells were centrifuged and the supernatant was discraded (4° C., 1500 rpm×5 min). The cells were washed twice with FACS buffer and the supernatant was removed. All treatment groups were added with 100 μL immunostaining fixative, placed at 4° C. for more than 30 min, and detected by the flow cytometer DxFlex. Endocytosis percentage of B7-H4 antibody (%)=(average fluorescence intensity value at each time point−average fluorescence intensity value of the blank group)/(average fluorescence intensity value at zero point−average fluorescence intensity value of the blank group)×100%.

Molecule	Binding to MX-1 cells with high expression of B7-H4 (in words) [1]	Affinity to the human B7-H4 antigen protein (in words) [2]	Dissociation rate kd [2] [s⁻¹]	Humanized antibody-mediated endocytosis efficiency of B7-H4 protein, 0 hour (%) [3] [%]	Humanized antibody-mediated endocytosis efficiency of B7-H4 protein, 0.5 hour (%) [3] [%]	Humanized antibody-mediated endocytosis efficiency of B7-H4 protein, 2 hours (%) [3] [%]
hu2G6: humanized anti-B7-H4 antibody, heavy chain SEQ ID NO: 19, light chain SEQ ID NO: 20 (antibody, A synthetic hu2G6 HC; A synthetic hu2G6 LC) heavy: EVQLLESGGGLVQPGGSLRLSCAASGFTFSRYGMSWVRQAPGKGLEWVSGINGGGSYTYYLDTVKGRFTISRDNARNTLYLQMSSLRAEDTAVYYCVSQGSNYYFDYWGQGTLVTVSS[no letters for human IgG1 constant region] light: DIRMTQSPSSLSASVGDRVTITCHASQGISSNIGWLQQKPGKAPKALIYHGTNLEDGVPSRFSGSGSGADYTLTISSLQPEDFATYYCVQYAQFPYTFGGGTKVEIKRTVAAPSVFIFPPSDEQLKSGTASVVCLLNNFYPREAKVQWKVDNALQSGNSQESVTEQDSKDSTYSLSSTLTLSKADYEKHKVYACEVTHQGLSSPVTKSFNRGEC	bind positively	strong affinity	1e-05	0	18.6	28.7
hu2F7: humanized anti-B7-H4 antibody, heavy chain SEQ ID NO: 21, light chain SEQ ID NO: 22 (antibody, A synthetic hu2F7 HC; A synthetic hu2F7 LC) heavy: EVQLVESGGGLVQPGGSLRLSCAASGFTFSNYYMSWVRQAPGKGLEWVAYVSSGGGSTYYSDSVKGRFTISRDNAKNTLYLQMSSLRAEDTAVYYCTRESYSQGNYFDYWGQGTTVTVSS[no letters for human IgG1 constant region] light: EIVMTQSPATLSLSPGERATLSCRASQSISDYLHWYQQKPGQSPRLLIKFASQSISGIPARFSGSGSGTDFTLTISSLEPEDFAVYYCQNGHSFSLTFGQGTKLEIKRTVAAPSVFIFPPSDEQLKSGTASVVCLLNNFYPREAKVQWKVDNALQSGNSQESVTEQDSKDSTYSLSSTLTLSKADYEKHKVYACEVTHQGLSSPVTKSFNRGEC	bind positively	strong affinity	0.000249	0	13.9	25.9
hu2F8: humanized anti-B7-H4 antibody, heavy chain SEQ ID NO: 39, light chain SEQ ID NO: 40 (antibody, A synthetic hu2F8 HC; A synthetic hu2F8 LC) heavy: EVQLVQSGAEVKKPGASVKVSCKASGYTFTSSWMNWVRQAPGQRLEWMGGIYPNRGNIEYNEKFKGRVTLTVDTSASTAYMELSSLRSEDTAVYYCARDSRFSYWGQGTLVTVSS[no letters for human IgG1 constant region] light: DIQMTQSPSSLSASVGDRVTITCKASQDVRTAVAWYQQKPGKAPKLLISSTSYRYTGVPSRFSGSGSGTDFTFTISSLQPEDIATYYCQQHYSTPLTFGGGTKVEIKRTVAAPSVFIFPPSDEQLKSGTASVVCLLNNFYPREAKVQWKVDNALQSGNSQESVTEQDSKDSTYSLSSTLTLSKADYEKHKVYACEVTHQGLSSPVTKSFNRGEC		strong affinity	0.000112			
